Measured values: a collection of fitness landscapes (doi:10.1038/s41467-024-54723-y)
The full ranking holds about 18,000 sequences; the median of “TetR repression strength (sort-seq, GFP reporter)” is about 0.23, and the highest 2% start at about 0.68. The list shows a part of the results.

target: TetR (class B, Tn10) (UniProt P04483); assay: TetR repression strength (sort-seq, GFP reporter) (relative to tetO2 = 1); higher = stronger repression; conditions: E. coli
Method in brief: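 Escherichia coli SIG10-MAX cells carried a low-copy plasmid library in which eight operator positions were randomized between a constitutive promoter and sfGFP, and TetR was expressed constitutively. After 5 h of growth at 37 °C in LB with 50 µg/mL chloramphenicol, 10^6 cells were FACS-sorted into 13 fluorescence bins, and each bin was Illumina-sequenced. Repression strength was the top bin index plus one minus the read-weighted mean bin, divided by the value for the unaltered operator. Across three independent transformations, only library members with ≥30 reads in every replicate and a CV ≤0.5 were averaged.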

UniProt P04483, sequence (P04483 whole entry): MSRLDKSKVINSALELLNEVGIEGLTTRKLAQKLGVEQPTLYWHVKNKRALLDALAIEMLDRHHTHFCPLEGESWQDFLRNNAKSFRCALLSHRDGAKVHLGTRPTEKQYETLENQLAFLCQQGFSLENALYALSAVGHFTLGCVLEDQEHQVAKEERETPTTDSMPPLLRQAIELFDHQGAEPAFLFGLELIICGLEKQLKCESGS

**Q.** TCCCCTTGAGTCGGCGAGA was tested. Which TetR repression strength did it give?
**A.** 0.0238

**Q.** How did the TetR repression strength turn out when TCCCGATAAGTAGAAGAGA was run?
**A.** 0.585

**Q.** How did the TetR repression strength turn out when TCCCTGGTAGTAGATGAGA was run?
**A.** 0.257

**Q.** TCCCGTAAAGTGGCGGAGA was tested. Which TetR repression strength did it give?
**A.** 0.166

**Q.** With TCCCCATTAGTAGGAGAGA as the sequence, how does the TetR repression strength read?
**A.** 0.0948

**Q.** TCCCGGGAAGTCCGGGAGA was tested. Which TetR repression strength did it give?
**A.** 0.115

**Q.** For TCCCGGTAAGTAAATGAGA, which TetR repression strength is on record?
**A.** 0.364

**Q.** TCCCCAGAAGTTGCTGAGA was tested. Which TetR repression strength did it give?
**A.** 0.294

**Q.** How did the TetR repression strength turn out when TCCCCGTCAGTTTAAGAGA was run?
**A.** 0.231

**Q.** TCCCCAGTAGTGAGCGAGA was tested. Which TetR repression strength did it give?
**A.** 0.239

**Q.** With TCCCTTAGAGTTATGGAGA as the sequence, how does the TetR repression strength read?
**A.** 0.486

**Q.** TCCCCTGAAGTGTGTGAGA was tested. Which TetR repression strength did it give?
**A.** 0.468

**Q.** For TCCCGACTAGTTGACGAGA, which TetR repression strength is on record?
**A.** 0

**Q.** How did the TetR repression strength turn out when TCCCGGCAAGTGAAAGAGA was run?
**A.** 0.197

**Q.** Which TetR repression strength does the source give for TCCCCGTCAGTGATGGAGA here?
**A.** 0.158

**Q.** Which TetR repression strength does the source give for TCCCTAACAGTCACGGAGA here?
**A.** 0.06

**Q.** How did the TetR repression strength turn out when TCCCACATAGTAGTTGAGA was run?
**A.** 0.248

**Q.** For TCCCTTGAAGTGATAGAGA, which TetR repression strength is on record?
**A.** 0.627

**Q.** TCCCAGCCAGTCGGCGAGA was tested. Which TetR repression strength did it give?
**A.** 0.316

**Q.** With TCCCGGTGAGTAAGCGAGA as the sequence, how does the TetR repression strength read?
**A.** 0.226

**Q.** With TCCCATATAGTGGGAGAGA as the sequence, how does the TetR repression strength read?
**A.** 0.103

**Q.** Which TetR repression strength does the source give for TCCCAGAAAGTTTATGAGA here?
**A.** 0.157

**Q.** How did the TetR repression strength turn out when TCCCTTGAAGTTATTGAGA was run?
**A.** 0.218

**Q.** TCCCGACGAGTAGGAGAGA was tested. Which TetR repression strength did it give?
**A.** 0.123

**Q.** For TCCCTCGGAGTTTTCGAGA, which TetR repression strength is on record?
**A.** 0.41

**Q.** For TCCCTGTCAGTAGTGGAGA, which TetR repression strength is on record?
**A.** 0.329

**Q.** How did the TetR repression strength turn out when TCCCCGCGAGTATCTGAGA was run?
**A.** 0.207

**Q.** TCCCTTTTAGTAATCGAGA was tested. Which TetR repression strength did it give?
**A.** 0.0739

**Q.** For TCCCGTGCAGTTTCGGAGA, which TetR repression strength is on record?
**A.** 0.185

**Q.** For TCCCCCCCAGTTGATGAGA, which TetR repression strength is on record?
**A.** 0.304

**Q.** For TCCCCCCGAGTCGATGAGA, which TetR repression strength is on record?
**A.** 0.556

**Q.** Which TetR repression strength does the source give for TCCCAGTAAGTTCCTGAGA here?
**A.** 0.136

**Q.** Which TetR repression strength does the source give for TCCCTGCGAGTGATGGAGA here?
**A.** 0.18

**Q.** For TCCCAGACAGTAAGAGAGA, which TetR repression strength is on record?
**A.** 0.161

**Q.** TCCCGGCTAGTATAGGAGA was tested. Which TetR repression strength did it give?
**A.** 0.0889

**Q.** For TCCCGGAGAGTATTCGAGA, which TetR repression strength is on record?
**A.** 0.115

**Q.** With TCCCTGGCAGTCGAGGAGA as the sequence, how does the TetR repression strength read?
**A.** 0.422

**Q.** Which TetR repression strength does the source give for TCCCTTGAAGTGGTAGAGA here?
**A.** 0.141

**Q.** How did the TetR repression strength turn out when TCCCCCGTAGTGAGCGAGA was run?
**A.** 0.381

**Q.** With TCCCGCTGAGTGGGTGAGA as the sequence, how does the TetR repression strength read?
**A.** 0.281

**Q.** TCCCACTGAGTCGATGAGA was tested. Which TetR repression strength did it give?
**A.** 0.403

**Q.** How did the TetR repression strength turn out when TCCCGAGTAGTACCGGAGA was run?
**A.** 0.239

**Q.** For TCCCCTGGAGTTTGGGAGA, which TetR repression strength is on record?
**A.** 0.286

**Q.** For TCCCTACGAGTGATCGAGA, which TetR repression strength is on record?
**A.** 0.243

**Q.** Which TetR repression strength does the source give for TCCCGTGCAGTGGCCGAGA here?
**A.** 0.0825

**Q.** With TCCCAGCAAGTGTTTGAGA as the sequence, how does the TetR repression strength read?
**A.** 0.172

**Q.** For TCCCGACGAGTGGGCGAGA, which TetR repression strength is on record?
**A.** 0.0789

**Q.** For TCCCACATAGTAGGAGAGA, which TetR repression strength is on record?
**A.** 0.21

**Q.** For TCCCGACCAGTTCAAGAGA, which TetR repression strength is on record?
**A.** 0.357

**Q.** With TCCCTTGAAGTGCGTGAGA as the sequence, how does the TetR repression strength read?
**A.** 0.185

**Q.** TCCCTGTTAGTCCACGAGA was tested. Which TetR repression strength did it give?
**A.** 0.605

**Q.** TCCCCAGCAGTTGTCGAGA was tested. Which TetR repression strength did it give?
**A.** 0.568

**Q.** How did the TetR repression strength turn out when TCCCCTTGAGTATTTGAGA was run?
**A.** 0.346

**Q.** With TCCCGTCAAGTGCCGGAGA as the sequence, how does the TetR repression strength read?
**A.** 0.325

**Q.** Which TetR repression strength does the source give for TCCCGTCTAGTTTGTGAGA here?
**A.** 0.784

**Q.** With TCCCTAGGAGTAAGTGAGA as the sequence, how does the TetR repression strength read?
**A.** 0.256

**Q.** For TCCCAGAGAGTGGGCGAGA, which TetR repression strength is on record?
**A.** 0.209

**Q.** Which TetR repression strength does the source give for TCCCGGACAGTTGTGGAGA here?
**A.** 0.209

**Q.** Which TetR repression strength does the source give for TCCCAAGGAGTGAAGGAGA here?
**A.** 0.0263

**Q.** Which TetR repression strength does the source give for TCCCTTTCAGTGAGTGAGA here?
**A.** 0.488

**Q.** For TCCCGCATAGTAGATGAGA, which TetR repression strength is on record?
**A.** 0.207

**Q.** How did the TetR repression strength turn out when TCCCACTCAGTTGTTGAGA was run?
**A.** 0.303

**Q.** Which TetR repression strength does the source give for TCCCTAGGAGTTATCGAGA here?
**A.** 0.0601

**Q.** TCCCTAGCAGTTCTGGAGA was tested. Which TetR repression strength did it give?
**A.** 0.161

**Q.** With TCCCTCCGAGTATGGGAGA as the sequence, how does the TetR repression strength read?
**A.** 0.302

**Q.** TCCCATTTAGTTTCGGAGA was tested. Which TetR repression strength did it give?
**A.** 0.21

**Q.** Which TetR repression strength does the source give for TCCCAAGGAGTGGGTGAGA here?
**A.** 0.185

**Q.** How did the TetR repression strength turn out when TCCCTAGCAGTGATAGAGA was run?
**A.** 0.858

**Q.** TCCCTCTGAGTGTCTGAGA was tested. Which TetR repression strength did it give?
**A.** 0.34

**Q.** How did the TetR repression strength turn out when TCCCGTTCAGTGTTAGAGA was run?
**A.** 0.596

**Q.** How did the TetR repression strength turn out when TCCCCCGGAGTGTACGAGA was run?
**A.** 0.212

**Q.** For TCCCAGTAAGTTAGTGAGA, which TetR repression strength is on record?
**A.** 0.33

**Q.** Which TetR repression strength does the source give for TCCCGACCAGTGGGGGAGA here?
**A.** 0.219

**Q.** Which TetR repression strength does the source give for TCCCACTTAGTGTCCGAGA here?
**A.** 0.195

**Q.** For TCCCCAGCAGTCATTGAGA, which TetR repression strength is on record?
**A.** 0.37

**Q.** For TCCCTCAAAGTCGTTGAGA, which TetR repression strength is on record?
**A.** 0.312

**Q.** For TCCCCTTGAGTAGTGGAGA, which TetR repression strength is on record?
**A.** 0.153

**Q.** How did the TetR repression strength turn out when TCCCGTCAAGTTTCTGAGA was run?
**A.** 0.104

**Q.** With TCCCCGCGAGTCACGGAGA as the sequence, how does the TetR repression strength read?
**A.** 0.201

**Q.** Which TetR repression strength does the source give for TCCCTGAAAGTCGTGGAGA here?
**A.** 0.0754

**Q.** Which TetR repression strength does the source give for TCCCAAATAGTGTGTGAGA here?
**A.** 0.241

**Q.** For TCCCCTCGAGTGGTCGAGA, which TetR repression strength is on record?
**A.** 0.218

**Q.** For TCCCGGAGAGTGAGAGAGA, which TetR repression strength is on record?
**A.** 0.408

**Q.** How did the TetR repression strength turn out when TCCCGCCAAGTGGGAGAGA was run?
**A.** 0.161

**Q.** Which TetR repression strength does the source give for TCCCTTCTAGTTAATGAGA here?
**A.** 0.395

**Q.** TCCCGTGAAGTGGGCGAGA was tested. Which TetR repression strength did it give?
**A.** 0.0935

**Q.** TCCCTTCCAGTAGTGGAGA was tested. Which TetR repression strength did it give?
**A.** 0.0917

**Q.** With TCCCGAGAAGTACGAGAGA as the sequence, how does the TetR repression strength read?
**A.** 0.294

**Q.** For TCCCGTGTAGTTACGGAGA, which TetR repression strength is on record?
**A.** 0.187

**Q.** How did the TetR repression strength turn out when TCCCCCTTAGTTTGTGAGA was run?
**A.** 0.296

**Q.** With TCCCCGCCAGTTAGTGAGA as the sequence, how does the TetR repression strength read?
**A.** 0.225

**Q.** How did the TetR repression strength turn out when TCCCTTCAAGTGACAGAGA was run?
**A.** 0.494

**Q.** TCCCACTTAGTGTGTGAGA was tested. Which TetR repression strength did it give?
**A.** 0.107

**Q.** TCCCTATTAGTTGATGAGA was tested. Which TetR repression strength did it give?
**A.** 0.248

**Q.** For TCCCGGACAGTCCGGGAGA, which TetR repression strength is on record?
**A.** 0.304

**Q.** For TCCCTGCTAGTACGTGAGA, which TetR repression strength is on record?
**A.** 0.481

**Q.** TCCCGCAAAGTCCGGGAGA was tested. Which TetR repression strength did it give?
**A.** 0.108

**Q.** With TCCCGTGGAGTTGCCGAGA as the sequence, how does the TetR repression strength read?
**A.** 0.227

**Q.** For TCCCATGAAGTGCGCGAGA, which TetR repression strength is on record?
**A.** 0.0264

**Q.** For TCCCGTCCAGTCATCGAGA, which TetR repression strength is on record?
**A.** 0.0877

**Q.** For TCCCGGCAAGTATTGGAGA, which TetR repression strength is on record?
**A.** 0.425

**Q.** With TCCCCTTTAGTGTATGAGA as the sequence, how does the TetR repression strength read?
**A.** 0.287
